Results taken from PubChem BioAssay AID1963576 (National Center for Advancing Translational Sciences (NCATS), 2024).
Out of some 46,000 compounds screened, about 60 (0.1%) were called active. Not shown: some 3% with an inconclusive outcome. Calls come from the whole dose curve; as a rule, active = well fitted inhibition curve with a large enough effect; inconclusive = small, poorly fitted or top-dose-only effect; inactive = no such curve, though single readings can be large or run the other way. Some of the results follow.

test: Primary qHTS assay for Inhibitors of ovarian cancer metastasis using an organotypic tumor microenvironment (TME) model.; note: nearly all actives have a fitted effect of over 65% in size;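 for activity change, negative = inhibition: plate controls were DMSO wells for no effect and tomatine positive control wells for full effect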; conditions: SKOV3ip1-GFP adhesion/invasion on 3D omental model, fluorescence; series mostly up to 45.8 µM; activity change, negative = inhibition: at the top concentration
Procedure, shortened: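 qHTS, 4-pt dose (0.36-46 umol/L); SKOV3ip1-GFP, 1,200 cells/well, no FBS; primary omental fibroblast/mesothelial co-culture 48 h pre-grown; 2 h RT + 16 h 37 C; PBS wash, 4% PFA; GFP count 488/509 nm.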

Activity change, negative = inhibition, inactive:
Cc1ccc(OCCCn2c(C3CC(=O)N(c4cccc(Cl)c4)C3)nc3ccccc32)c(C)c1 (stereo unspecified) 1.88%
COc1ccc(-n2ncc(C(=O)NCc3ccccc3)c2C2CCN(C(=O)OC(C)(C)C)CC2)cc1 -7.75%
COc1ccc(-c2nc3c(C#N)c[nH]n3c2NC2CCCCC2)c(OC)c1 -9.93%
CCCC(=O)NCC(c1ccc2c(c1)OCO2)N1CCN(c2ccc(F)cc2)CC1 (stereo unspecified) 0.827%
CCc1ccc(NC(=O)Cn2cnc3sc(C)c(S(=O)(=O)N4CCC(C)CC4)c3c2=O)cc1 -9.41%
CCOc1ccccc1CNC(=O)Nc1cn(CC(C)C)c(=O)c2ccccc12 -7.41%
COc1ccc(CCNC(=O)CCn2c(=O)c3cccn3c3ccc(F)cc32)c(OC)c1OC 0.361%
Cc1ccc(OCc2nc3ccccc3n2CC(C)C)cc1 4.46%
Cc1ccc(CN2CCC(CNc3ncnc4onc(-c5ccc(Cl)cc5)c34)CC2)cc1 -11.4%
CCCN(C(=O)c1cc2c(s1)-c1ccccc1SC2)c1ccccc1F -26%
Cc1cc2c(cc1S(=O)(=O)NCc1ccc(N(C)C)cc1)OCC(=O)N2 8.73%
CC(Oc1ccccc1)C(=O)Nc1nc2ccc(S(N)(=O)=O)cc2s1 (stereo unspecified) -0.0764%
COC(=O)CNC(=O)Nc1cc(C(=O)NCc2ccc(C)cc2)ccc1N1CCCC1 0.0817%
CC(C)(C)NS(=O)(=O)c1ccc2nc(NC(=O)c3cccnc3)sc2c1 0.902%
COc1ccc2c(c1)c(C1=C(c3c[nH]c4ccccc34)C(=O)NC1=O)cn2CCCN(C)C -9.58%
COc1cc(C2NC(=O)NC(C)=C2C(=O)Nc2cc(C)cc(C)c2)ccc1O (stereo unspecified) -1.06%
CCOC(=O)c1c(C)c(-c2ccccc2)n(CC(=O)Nc2cc(OC)cc(OC)c2)c1C 7.77%
CCOC(=O)c1noc2ncnc(N3CCN(c4ccccc4OC)CC3)c12 5.74%
Cc1ccc(Cn2c(SCC(=O)NCc3ccc(Cl)cc3)nc3ccsc3c2=O)cc1 4.18%
CCc1cc(C(=O)Nc2c(C)nn(Cc3ccc(C)cc3)c2C)no1 1.39%
O=C(CSc1nc2ccccc2c2nc(-c3ccccc3)nn12)Nc1ccc(Br)cc1 -6.91%
CC(C)(C)c1cc(C(C)(C)C)c2oc(=O)c(-c3nc4ccccc4[nH]3)cc2c1 -2.7%
O=C(Nc1ccc(F)cc1F)c1ccc(CN2CC(=O)N3CCCCC3C2=O)cc1 (stereo unspecified) 2.98%
COC(=O)C1CCN(S(=O)(=O)c2cc3c4c(c2)C(C)C(=O)N4CCC3)CC1 (stereo unspecified) 14.8%
CC(=O)N1c2ccccc2CC1C(=O)N1CCN(c2ccc(F)cc2)CC1 (stereo unspecified) 8.22%
COCCCNC(=O)Cn1c(=O)n(-c2ccc(C)cc2)c(=O)c2c1c1cc(C)ccc1n2C 0.969%
O=c1cc(-c2ccccc2)oc2cc(O)cc(O)c12 28%
COc1cccc(N2CCN(C(=O)C3CCC(CNS(=O)(=O)c4ccc(Br)s4)CC3)CC2)c1 (stereo unspecified) -9.3%
Cc1ccc(Cl)cc1N1CCN(C(=O)c2cn(C3CCCCC3)c(=O)c3c2c2ccccc2n3C)CC1 2.3%
Cc1nn(C(=O)c2cccc([N+](=O)[O-])c2C)c(C)c1S(=O)(=O)N1CCOCC1 5.82%
CC(=O)Nc1ccc(S(=O)(=O)NCC2CCC(C(=O)NCCc3ccccc3)CC2)cc1 (stereo unspecified) -5.08%
CC(CCc1ccccc1)NC(=O)Cn1ncc2c3ccccc3n(Cc3ccc(F)cc3)c2c1=O (stereo unspecified) 8.32%
CC(C)c1ccc(S(=O)(=O)c2nnn3c2nc(NCCc2ccccc2)c2sccc23)cc1 -5.16%
Cc1cc(C)cc(Oc2nc3c(C)cccn3c(=O)c2/C=C(\C#N)c2nc3ccccc3[nH]2)c1 -0.664%
Cc1ccc(NC(=O)CC(C)S(=O)(=O)c2ccc3c(c2)NC(=O)CO3)c(C)c1 (stereo unspecified) 3.18%
Cc1ccc2nc(-c3ccsc3)c(Nc3ccccc3C)n2c1 -18.2%
Cc1nc2nncn2c(N2CCN(c3ccccc3)CC2)c1C -3.86%
c1cnc2cc3c(cc2n1)C1CNCC3C1 1.69%
Cc1ccc(NC(=O)CSc2ncc3c(n2)-c2ccccc2N(Cc2cccc(F)c2)S3(=O)=O)cc1F 0.495%
Cc1ccc(-c2cc(C(F)(F)F)n3nc(C(=O)Nc4ccc(Cl)cc4Cl)cc3n2)cc1 17.5%
CCN(CC)C(=O)C1CCN(S(=O)(=O)c2ccc3c(c2)CCCN3C(C)=O)CC1 -10.6%
O=C1c2ccccc2C(=O)C1(c1ccccc1)N1CCN(c2cccc(Cl)c2)CC1 -9.47%
COc1ccc(-n2c(/C=C/c3ccccc3F)nc3cc(OC)c(OC)cc3c2=O)cc1Cl 5.08%
COCCNC(=O)c1cnn(-c2ccc(C)cc2C)c1C1CCN(C(=O)OC(C)(C)C)CC1 1.52%
CN(C)CCOc1ccc(-c2nc(-c3ccc4c(c3)CCC4=NO)c(-c3ccncc3)[nH]2)cc1 -3.95%
COCCNC(=O)Cc1ccc(NC(=O)N2CCCCc3ccccc32)cc1 4.78%
O=C(NCc1ccc(F)cc1)c1ccc(CSCc2cccc(Cl)c2)o1 5.82%
CCN(Cc1ccccc1)C(=O)c1c(C)oc2ncn(C)c(=O)c12 9.24%
Cc1cc(C)nc(NS(=O)(=O)c2ccc(NC(=O)COc3ccc(Cl)cc3C)cc2)n1 0.627%
O=C(CSc1nccn1Cc1ccccc1)NCc1ccc(F)cc1 1.79%
CCOc1cc(-c2ccc(OC(=O)c3ccccc3F)cc2)cc(=O)c2c(C)oc(C)c12 -15.1%
CC1CN(C(=O)Nc2ccc(C(=O)NCCc3ccccc3)cc2)c2ccccc2S1 (stereo unspecified) 0.532%
Clc1cccc(N2CCN(c3nc4ccccc4n4cnnc34)CC2)c1 0.319%
COc1ccc(NC(=O)CCc2nnc3n(C)c(=O)c4sccc4n23)cc1 -15.6%
COc1ccc(-n2ccnc(NCc3ccc(Cl)cc3)c2=O)cc1 -1.71%
COc1ccc(-n2nc3ccc(NC(=O)c4ccc(-c5cc(Cl)ccc5Cl)o4)cc3n2)cc1 13.6%
Cc1c(Cl)ccc2sc(NC(=O)c3ccc(S(=O)(=O)N4CCCc5ccccc54)cc3)nc12 6.63%
CCCc1cnc2c(c1SCC(=O)N(C)c1ccccc1)c(=O)n(C)c(=O)n2C -25.9%
Cc1c(Cl)cccc1-c1ccc(CNc2ccc3[nH]c(=O)[nH]c3c2)o1 -18.6%
Cc1cc(C)cc(NC(=O)CCC(=O)N2Cc3ccccc3Oc3ncccc32)c1 -18.1%
COc1cccc(NC(=O)C2CCCN(S(=O)(=O)c3c(C)[nH]c(=O)[nH]c3=O)C2)c1 (stereo unspecified) 20.3%
CC1CCN(S(=O)(=O)c2ccc3c(c2)oc(=O)n3CC(=O)NCc2ccc(F)cc2)CC1 -9.01%
Cc1cc(C)cc(-n2c(SCC(=O)N3CCCCC3)nc3c([nH]c4ccccc43)c2=O)c1 -6.09%
CCc1ccccc1NC(=O)c1nnn(-c2ccc(F)cc2)c1C 0.836%
COc1cc2ccccc2cc1C(=O)Nc1ccc2oc(-c3ccc(F)cc3)nc2c1 1.18%
Cc1cccc(N2CCN(C(=O)NCc3noc4ccccc34)CC2)c1C 6.06%
COc1ccc(CNC(=O)c2cc3c(=O)[nH]c4ccccc4c3s2)cc1 3.98%
Cc1ccc(SCc2nc(-c3ccc(C(=O)NCc4ccc(Cl)cc4)cc3)oc2C)cc1 -16.9%
COc1cc(C(=O)Nc2nc3nc(-c4ccccc4)cc(=O)n3[nH]2)cc(OC)c1OC 12.7%
COc1cc(NC(=O)c2noc3c2CSc2ccccc2-3)cc(OC)c1OC -4.25%
O=C(NC1CCCCC1)c1cc(Nc2cccc(C(F)(F)F)c2)nc2ccccc12 6.14%
CCN(Cc1ccccc1)C(=O)c1nc(-c2cccc(F)c2)n2c1CCCCC2 6.2%

outcome, inactive:
COc1cccc(-n2ccnc2SCC(=O)Nc2cccc(C)c2C)c1
CC1(c2ccc(Cl)cc2)CC(C)(C)N(C(=O)c2ccccc2)c2ccccc21 (stereo unspecified)
COc1ccc(N(CC(=O)NC(C)c2ccccc2)S(=O)(=O)c2c(C)noc2C)cc1 (stereo unspecified)
COc1ccc(C)cc1NC(=O)c1oc2ccc(S(=O)(=O)N(C)C3CCCCC3)cc2c1C
CCS(=O)(=O)N1CC(=O)N(c2ccccc2C)C(C)(C(=O)NC2CCCCC2)C1 (stereo unspecified)
Cc1ccc(NC(=O)CN2CCCN(Cc3cc(C)ccc3C)S2(=O)=O)c(Cl)c1
CN(C)c1ccc(C(CNC(=O)COc2ccc(Cl)cc2)N2CCOCC2)cc1 (stereo unspecified)
COc1ccc(NC(=O)CSc2nnc(-c3ccc(C)cc3)o2)cc1
Cc1ccc(CNC(=O)c2cc3sccc3n2Cc2ccc(Cl)cc2)cc1
CCCn1c(=O)c2sccc2n2c(CCCC(=O)NCCc3ccc(Cl)cc3)nnc12
COc1cccc(N2CC(NC(=O)C(c3ccccc3)c3ccccc3)CC2=O)c1 (stereo unspecified)
COCC(=O)Oc1c(Sc2ccc(C)cc2)c(C)nn1C(C)(C)C
COc1cc(-c2ccno2)ccc1S(=O)(=O)N1CCN(c2cc(C)ccc2C)CC1
Cc1ccc(N2CC(NC(=O)/C=C\c3ccc4c(c3)OCO4)CC2=O)cc1C (stereo unspecified)
COC(=O)c1scc(-c2ccccc2)c1S(=O)(=O)Nc1ccccc1
Cc1ccccc1Cn1c(C(=O)O)c(CNCc2cccc(F)c2)c2ccccc21
Cn1cc(CN(C(=O)Nc2ccc(Cl)c(Cl)c2)C2CCCCC2)c2ccccc21
CCOc1ccc(C(=O)Nc2cc(-c3nc4ccccc4o3)ccc2C)cc1Cl
Cc1ccc(CCNC(=O)c2cc3sccc3n2Cc2ccc(C)cc2)cc1
O=C(Nc1ccc(Br)c2cccnc12)c1cccc2ccccc12
CCN(c1cc(C)cc(C)c1)S(=O)(=O)c1nnc(NC(=O)C2CCCCC2)s1
COc1ccc(NC(=O)c2oc3ccccc3c2NC(=O)c2cccc(F)c2)c(OC)c1
CCOc1ccc(NC(=O)Cn2c(=O)n(Cc3ccco3)c(=O)c3oc4ccccc4c32)cc1
Cc1ccn2c(=O)cc(CSc3nnc(NC(=O)c4ccccc4Cl)s3)nc2c1
